We go through one molecule from the supplement of paper PMC8728848.

Common to all, as to experiment: glycan array binding signal (z-score within array); higher = stronger binding
Conditions in all cases: glycan notation: IUPAC condensed, linker removed

The target of one assay is Glc(b1-6)Glc. Summed up: (§1)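 Arrays were curated from the Consortium for Functional Glycomics database, 3228 in total, and kept only where the protein sequence was available. Binding is expressed as a within-array Z-score. This score was averaged across arrays of the same protein sequence at different concentrations or buffers and across linkers, and negative values can be read as non-binding.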

In the next assay the target is GlcA(b1-3)Gal. Summed up: as §1
Another assay concerns the target GlcA(b1-3)GlcNAc. Summed up:
as §1

In the next assay the target is GlcA(b1-6)Gal. Put shortly: as §1
In assay [1] the target is GlcA3S(b1-3)Gal(b1-4)GlcNAc(b1-2)Man. Summed up:
as §1

Assay [2] concerns the target GlcA3S(b1-3)Gal(b1-4)GlcNAc(b1-3)Gal(b1-4)Glc. Put shortly:
as §1

In assay [3] the target is GlcNAc(a1-3)Gal(b1-4)GlcNAc. Summed up:
as §1

For assay [4], the target named is GlcNAc(a1-4)Gal(b1-3)GlcNAc. Summed up:
as §1

Assay [5] has as its target GlcNAc(a1-4)Gal(b1-4)GalNAc. Summed up:
as §1

The target of assay [6] is GlcNAc(a1-4)Gal(b1-4)GlcNAc. Put shortly:
as §1

Assay [7] has as its target GlcNAc(a1-4)Gal(b1-4)GlcNAc(b1-3)Gal(b1-4)Glc. Summed up:
as §1

Assay [8] addresses GlcNAc(a1-4)Gal(b1-4)GlcNAc(b1-3)Gal(b1-4)GlcNAc. Summed up: as §1
Assay [9] addresses GlcNAc(a1-4)Gal(b1-4)GlcNAc(b1-3)Gal(b1-4)GlcNAc(b1-3)Gal(b1-4)GlcNAc. Summed up: as §1
The target in assay [10] is GlcNAc(a1-4)Gal(b1-4)GlcNAc(b1-3)Gal(b1-4)[Fuc(a1-3)]GlcNAc(b1-3)Gal(b1-4)[Fuc(a1-3)]GlcNAc. Summed up:
as §1

For assay [11], the target named is GlcNAc(a1-6)Gal(b1-4)GlcNAc. Put shortly:
as §1

The target of assay [12] is GlcNAc(b1-2)Gal(b1-3)GalNAc. Put shortly:
as §1

Assay [13] has as its target GlcNAc(b1-2)Man(a1-3)[GlcNAc(b1-2)Man(a1-6)]Man(b1-4)GlcNAc(b1-4)GlcNAc. Summed up: as §1
Assay [14] addresses GlcNAc(b1-2)Man(a1-3)[GlcNAc(b1-2)Man(a1-6)]Man(b1-4)GlcNAc(b1-4)[Fuc(a1-6)]GlcNAc. Put shortly: as §1
The target of assay [15] is GlcNAc(b1-2)Man(a1-3)[GlcNAc(b1-4)][GlcNAc(b1-2)Man(a1-6)]Man(b1-4)GlcNAc(b1-4)GlcNAc. Summed up:
as §1

For assay [16], the target named is GlcNAc(b1-2)Man(a1-3)[GlcNAc(b1-4)][GlcNAc(b1-2)Man(a1-6)]Man(b1-4)GlcNAc(b1-4)[Fuc(a1-6)]GlcNAc. Summed up:
as §1

The target in assay [17] is GlcNAc(b1-2)[GlcNAc(b1-4)]Man(a1-3)[GlcNAc(b1-2)Man(a1-6)]Man(b1-4)GlcNAc(b1-4)GlcNAc. Summed up:
as §1

Assay [18] addresses GlcNAc(b1-2)[GlcNAc(b1-4)]Man(a1-3)[GlcNAc(b1-4)][GlcNAc(b1-2)Man(a1-6)]Man(b1-4)GlcNAc(b1-4)GlcNAc. Put shortly:
as §1

Some of the results follow.

B1: PX14375F-bfa-539-21-539 (Bacteroides fragilis) (protein)
chain: EDFLQKDPPSSPSQSVFWQKKSDFESALAGTYSVMYSGVFSQIMPCLDGLTDNAIVQHSEGTYGWAKTIAQGDLTPNQGGFVTDIYGNCYKGIARVHILMEQLDQYTGSDISADEKKFMLAQCKALRGYFYSWLYQCYKEVPVVTQSLDLNTMYQPKATRAEVLNRVMTDYDEAISELPDKLYSDSQTSGRFTVSAVKALKARILLFDAYDSNGKAISSKMEEVLTLLQSIKGYSLAARVRDNFISEKQLASPEIMFSVRFLRPNLTHSMDLYYGAWAVLDPTRNMVDAFECTDGKPWGESPLTVRPDESILYGNDDALKKAERAKMFMNRDRRLYESVNHSMMANFVDDGFKDEEVQVNESNNKGPTGFSALKYVQPTDVTPGYSTVSDADIVVLRYAHVLLMIAEAENEAHGATTTALNAINEVRTRSGQPAIEAGISQDDLRERIRNEWRIETCFEGLRYFQLKRWKLMDKRVNGVEDPAYPGYIKVYKPAFEFFPIPQSEIDKAGGVLKQDPAYE
B1: the “glycan array binding signal (z-score)” value in the assay with Glc(b1-6)Glc is 0.021; with GlcA(b1-3)Gal, -0.214; with GlcA(b1-3)GlcNAc, -0.113; with GlcA(b1-6)Gal it was 0.504; in assay [1], -0.346; in assay [2], 1.49. Also, the “glycan array binding signal (z-score)” value in [3] was 0.187; in assay [4], 0.204; in assay [5], -0.334; in assay [6], 0.011; in assay [7], -0.394; in [8], -0.433. For the same molecule, the “glycan array binding signal (z-score)” value was -0.081 in [9]; 0.867 in assay [10]; 1.9 in [11]; 0.055 in assay [12]; 0.266 in assay [13]; -0.47 in [14]. Moreover, the “glycan array binding signal (z-score)” value was 0.017 in assay [15], -0.471 in [16], -0.105 in [17] and 0.443 in assay [18].
